# Data reported in PubChem BioAssay AID1508642 (National Center for Advancing Translational Sciences (NCATS), 2021).
# Screen size: about 43,000 compounds; about 200 (0.47%) were called active. About 12% were inconclusive and are not listed. Calls follow the shape of the dose curve; as a rule, active = well fitted cell-killing curve with a large enough effect; inconclusive = small, poorly fitted or top-dose-only effect, or effect the other way; inactive = flat fitted curve, though single readings scatter. The list shows a part of the results.
# Experiment: Cell viability qHTS assay in S16 Pmp22-F2sN cells; also: nearly all actives have a fitted effect of over 65% in size
# Conditions: S16 Pmp22-F2sN Schwann cells (luciferase reporters placed in the Pmp22 gene) viability, CellTiter-Glo, 24 h; series mostly up to 57.5 µM; activity change, negative = cytotoxicity: at the top concentration
# Procedure, shortened: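 Rat S16 Schwann reporter line, 24 h treatment with library compounds delivered at 23 nL per well. Cell viability by CellTiter-Glo luminescence.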
# % is scaled to controls: 0 for no effect and ±100 for the full control effect.
row,Structure (SMILES),"activity change, negative = cytotoxicity"
1,CCC(Cn1nnc2ccccc2c1=O)NC(=O)Nc1cccc(C)c1C (configuration not stated),inactive: -2.15%
2,O=C(Cn1c(=O)n(Cc2ccco2)c(=O)c2ccccc21)Nc1ccc(Cl)cc1Cl,inactive: 25.4%
3,CC1=C(C(=O)Nc2ccccc2)C(c2ccncc2)n2nc(SCc3ccccc3Cl)nc2N1 (configuration not stated),inactive: 9.11%
4,Cc1ccc2nc(Nc3cccc(Cl)c3C)c(-n3nc(C)cc3C)nc2c1,inactive: -0.607%
5,CC(C)CN(C(=O)c1cccc(S(=O)(=O)N2CCCCC2)c1)C1CCS(=O)(=O)C1 (configuration not stated),inactive: -2.08%
6,CCOC(=O)c1ccc(NC(=O)Cn2c(=O)n(-c3ccc(C)cc3)c(=O)c3c2cnn3C)cc1,inactive: 18.1%
7,Cc1ccccc1NC(=O)Cn1c(SCC(=O)Nc2ccc(F)cc2)nc2ccccc21,inactive: 1.77%
8,Cc1c(-c2nc(-c3ccc4c(c3)OCO4)no2)nnn1-c1ccc(Br)cc1F,inactive: 1.8%
9,O=C(O)c1ccc(CNCc2ccc(Cl)cc2)s1,inactive: -1.07%
10,CCOC(=O)c1c(NC(=O)c2nc(SCC)ncc2Cl)sc(C(C)=O)c1C,inactive: 5.37%
11,Cc1ccc(CNC(=O)Cc2c(C)c3cc4c(C)coc4cc3oc2=O)cc1,inactive: 21.5%
12,O=C(COc1ccccc1Cl)OCc1cc(=O)n2nc(-c3cccs3)sc2n1,inactive: -16.5%
13,CCOc1ccc(NC(=O)c2cc(S(=O)(=O)N3CCCCCC3)cn2C)cc1,inactive: -2.71%
14,Cc1c2cnn(-c3ccccc3)c(=O)c2c(C)n1CC(=O)NCCc1ccc(Cl)cc1,inactive: 0.395%
15,COc1ccc2c(c1)c1c(c(=O)n(-c3ccc(F)c(Cl)c3)c(=O)n1CC(=O)N1CCCC1)n2C,inactive: -12.8%
16,CCc1ccc(NC(=O)CN2CCCN(Cc3cccc(Cl)c3)S2(=O)=O)cc1,inactive: 14.4%
17,COC(=O)c1cc2sc(C)cc2n1CC(=O)Nc1ccc(C)c(C)c1,inactive: -14.9%
18,CC(=O)N1CCc2c(sc3c2c(=O)n(-c2ccccc2)c(=O)n3CC(=O)Nc2ccccc2)C1,inactive: 4.9%
19,COc1cc(CNC(=O)c2ccc3c(c2)N(C)C(=O)C2CCCCN32)cc(OC)c1OC (configuration not stated),inactive: -3.5%
20,O=C(NCCc1ccc(Cl)cc1)C1CCN(c2ncnc3c2nc2n3CCCCC2)CC1,inactive: -3.29%
21,COc1ccccc1-c1nnc(SCC(=O)Nc2ccccc2F)o1,inactive: 1.4%
22,CC(=O)N1c2ccc(S(=O)(=O)NCC3CCC(C(=O)Nc4ccc(C)cc4)CC3)cc2CC1C (configuration not stated),inactive: -0.283%
23,CN(Cc1ccco1)C(=O)c1ccc2c(c1)N(Cc1ccccc1F)C(=O)c1ccccc1S2,inactive: 4.22%
24,Cc1ccc(-n2c(=O)c3c4c(sc3n(CC(=O)c3ccc(Cl)cc3)c2=O)CCC4)cc1C,inactive: 3.01%
25,Cc1nc2nc(NC(=O)c3ccccc3F)[nH]n2c(=O)c1Cl,inactive: -0.416%

row,Structure (SMILES),"activity change, negative = cytotoxicity"
1,CC(=O)Nc1cccc(NC(=O)CN2C(=O)CCSc3ccccc32)c1,inactive: 20.3%
2,O=C(Nc1ccc2oc(-c3ccc(O)c(Br)c3)nc2c1)c1cc2ccccc2o1,inactive: 8.06%
3,COc1ccc(C2C=C(c3cccc(OC)c3)Nc3c(C(=O)Nc4ccccc4)cnn32)cc1 (configuration not stated),inactive: -5.75%
4,CCn1c2c(c(=O)n3ncc(C(=O)Nc4cc(Cl)ccc4C)c13)CN(Cc1ccc(OC)cc1)CC2,inactive: -8.46%
5,Cc1ccn2c(Nc3ccc(C(C)C)cc3)c(-c3cccs3)nc2c1,inactive: -5.76%
6,COc1cc(OC)c(NC(=O)C2=C(C)C(=O)OC23CCCCCC3)cc1Cl,inactive: -6.47%
7,O=C(CSc1nnc(-c2cccc(Cl)c2)o1)N1CCc2ccccc21,inactive: 3.71%
8,CC(C)CN(CCCNC(=O)c1cc(=O)[nH]c2ccc(S(=O)(=O)N3CCCCCC3)cc12)CC(C)C,inactive: -7.65%
9,CC(=O)N1c2nc(C(C)C)nn2C2(CCCCC2)[C@@H]2CCCC[C@@H]21,inactive: -2.37%
10,CCOc1ccc2oc(=O)cc(CN3CCN(c4cc(C)ccc4C)CC3)c2c1,inactive: 23.7%
11,Cc1ccc(NC(=O)c2nc(S(C)(=O)=O)ncc2N(Cc2ccccc2)Cc2ccco2)c(C)c1,inactive: -1.53%
12,Cc1c(NC(=O)c2cc([N+](=O)[O-])ccc2N2CCOCC2)cccc1-c1nc2ccccc2o1,inactive: -8.81%
13,CN(C)CCNC(=O)C1CCN(c2nc3ccccc3[nH]2)CC1,inactive: 14.6%
14,COc1ccc(NC(=O)Nc2nnc(N3CCCCCC3)s2)cc1,inactive: 4.43%
15,Cc1ccc(CNC(=O)Cn2c3ncccc3c(=O)n2-c2ccccc2)cc1,inactive: -5.51%
16,O=C(CSc1ccc(-c2ccccn2)nn1)Nc1ccc(F)c(F)c1,inactive: -2.58%
17,Cc1nn(-c2ccc(F)cc2)c(-n2cccc2)c1C(=O)N1CCN(c2ccc(F)cc2)CC1,inactive: -1.82%
18,COc1ccc(NC(=O)c2nnn(Cc3ccccc3C)c2N)c(OC)c1,inactive: -16.8%
19,Cc1ccc(C(=O)Nc2c(-c3ccccc3)nc3ccccn23)cc1C,inactive: -0.822%
20,CCOc1ccc(NC(=O)c2ccc(NC(=O)CCS(=O)(=O)c3cccs3)cc2)cc1,inactive: 11.9%
21,COc1cc(OC)c(NC(=O)c2c(C)oc3ncn(C)c(=O)c23)cc1Cl,inactive: 4.44%
22,CCOc1ccc(CCNC(=O)CCc2c(C)nc3c(c(C)nn3-c3ccccc3)c2C)cc1OCC,inactive: 5.11%
23,CCn1cc(C(=O)N2CCN(c3cccc(Cl)c3)CC2)c(=O)c2cc(S(=O)(=O)N3CCOCC3)ccc21,inactive: 0.878%
24,Cc1ccc(Cc2nc3ccccc3nc2SCC(=O)N2CCc3ccccc32)cc1,inactive: 5.85%
25,COC(=O)c1ccc(Cl)cc1NC(=O)N1CC=C(c2c[nH]c3ccccc23)CC1,inactive: -28%

row,Structure (SMILES),"activity change, negative = cytotoxicity"
1,COc1ccc(N2CCN(C(=O)c3cc4c(-c5ccccc5F)nn(C)c4s3)CC2)cc1,inactive: -17.8%
2,O=C(Cn1ncc2c(=O)oc3ccccc3c21)Nc1cc(F)ccc1F,inactive: 11.9%
3,CC1CCN(S(=O)(=O)c2ccc3c(c2)N(CC(=O)NCc2ccccc2)C(=O)CO3)CC1,inactive: 2.86%
4,COc1ccc2c(CNCC(C)c3ccccc3)c(C(=O)O)n(Cc3ccc(F)cc3Cl)c2c1 (configuration not stated),inactive: 15.6%
5,COc1ccc(/C=C(\C#N)c2nc(-c3cc(Cl)ccc3OC)cs2)cc1,inactive: 6.68%
6,O=C1CS(=O)(=O)C2(C(=O)N(Cc3cccc(F)c3)c3ccccc32)N1c1ccccc1 (configuration not stated),inactive: 3.27%
7,O=C(CSc1nc2nccnc2c(=O)n1CCc1c[nH]c2ccccc12)Nc1ccccc1F,inactive: 0.481%
8,Oc1ccccc1Nc1nc(-c2ccccc2)c2cc(Cl)ccc2n1,inactive: 1.55%
9,Cc1cccc(OCCCC(=O)Nc2sc3c(c2C(N)=O)CCC(C)C3)c1 (configuration not stated),inactive: -19.9%
10,Cc1nn(CC(=O)NCc2ccco2)c(=O)c2cc3ccccc3n12,inactive: 13.7%
11,CCc1ccccc1N(C)C(=O)c1cn(CC(C)C)c(=O)c2cc(OC)c(OC)cc12,inactive: -5.84%
12,Cc1cccc(NC(=O)Nc2nnc(N(C)C3CCCCC3)s2)c1C,inactive: -1.75%
13,O=C(CCC(=O)N1Cc2ccccc2Oc2ncccc21)Nc1ccc(Cl)cc1,inactive: -2.19%
14,COc1ccc(-c2nn(CC(=O)NC3CCCC3)c3c2cnc2ccc(F)cc23)cc1,inactive: 12.4%
15,Cc1ccc(N2CC3=C(C2=O)C(c2ccc(Br)cc2)NC(=O)N3C)cc1 (configuration not stated),inactive: 9.42%
16,CC(C)c1ccc(NS(=O)(=O)c2ccc3[nH]cc(C(=O)NC4CCCC4)c(=O)c3c2)cc1,inactive: 1.11%
17,O=C1Cc2cc(S(=O)(=O)N3CCN(c4ccccc4)CC3)ccc2N1,inactive: 0.701%
18,Cc1ccccc1Nc1sc(C(=O)c2ccc3c(c2)OCO3)c(N)c1S(=O)(=O)c1ccccc1,inactive: -5.77%
19,Cc1ccc(-c2nc(C(=O)NCc3ccc(Cl)cc3)c3n2CCCCC3)cc1,inactive: 21.8%
20,O=C(Cn1c(=O)oc2cc(S(=O)(=O)N3CCCCCC3)ccc21)Nc1cccc(C(F)(F)F)c1,inactive: 2.47%
21,CCn1c(SCc2ccccc2)nnc1-c1nonc1NC(C)=O,inactive: -3.4%
22,CCC(=O)N1CCc2cc(Br)cc(S(=O)(=O)NCCc3ccc(OC)c(OC)c3)c21,inactive: 5.74%
23,CC(=O)C1=C(OC(=O)C(C)C)c2ccccc2S(=O)(=O)N1Cc1ccccc1,inactive: -2.76%
24,O=C(NCCCc1nc2ccccc2n1Cc1ccccc1Cl)C1CCCCC1,inactive: -6.17%
25,Cc1ccc(CNC(=O)CC2Oc3ccccc3NC2=O)cc1 (configuration not stated),inactive: 21.2%

row,Structure (SMILES),"activity change, negative = cytotoxicity"
1,CCN(C(=O)CSc1nc2ccccc2n1CC(=O)Nc1cccc(C#N)c1)c1ccccc1,inactive: -13.5%
2,CCOC(=O)C1CCCN(C(=O)Cn2ncc3c([nH]c4ccccc43)c2=O)C1 (configuration not stated),inactive: -2.81%
3,COc1ccc(C(CC(=O)Nc2ccc(F)c(Cl)c2)N2Cc3ccccc3C2=O)cc1OC (configuration not stated),inactive: -1.38%
4,COc1cc(C(=O)N(Cc2ccc(C(C)C)cc2)C2CCS(=O)(=O)C2)cc(OC)c1OC (configuration not stated),inactive: -17.4%
5,CCOc1ccc(CCNC(=O)c2ccc3c(c2)c(C)c(C)n3C)cc1,inactive: -0.121%
6,COC(=O)c1ccc(NC(=O)CSc2nc(=O)n(Cc3ccco3)c3c2CCC3)cc1,inactive: -11%
7,Cc1ccccc1C(=O)N1CCC(c2nc3ccccc3s2)CC1,inactive: -13.9%
8,Cc1cccc(-c2nc(SCc3ccc(Br)cc3)n3[nH]c(=O)cc3n2)c1,inactive: -1.7%
9,Cn1nc(C(=O)Nc2cc(F)ccc2F)c2c1-c1ccccc1SC2,inactive: -0.176%
10,CC1CCCCN1c1csc2ccc(F)cc2c1=O (configuration not stated),inactive: 2.48%
11,CSc1nc2sc3c(c2c(=O)n1-c1ccc(C)c(Cl)c1)CCN(C(C)=O)C3,inactive: 12.3%
12,Cn1c(=O)c2c(-c3ccc(Cl)cc3)n(Cc3ccccc3)cc2n(C)c1=O,inactive: 1.78%
13,O=C(O)Cn1nnc(-c2ccc(OCc3cccc(C(F)(F)F)c3)cc2)n1,inactive: 8.93%
14,CCOC(=O)c1[nH]c(C)c(CCC(=O)NCc2ccc(N(C)C)cc2)c1C,inactive: 7.53%
15,COc1ccc(Cn2c(CCC(=O)NCc3cccc(Cl)c3)nc3cccnc32)cc1,inactive: -15.6%
16,COc1cccc(/C=C/c2nc(C#N)c(NCCN(C)C)o2)c1,inactive: 5.15%
17,COc1cccc(NC(=O)C2CCC(CNS(=O)(=O)c3ccc4c(c3)CC(C)N4C(C)=O)CC2)c1 (configuration not stated),inactive: -23.6%
18,CCOC(=O)c1cc(S(=O)(=O)Nc2ccc(C)cc2Cl)[nH]n1,inactive: 0.0911%
19,O=C(CSc1nccn1Cc1ccco1)Nc1ccc(F)cc1,inactive: 14.8%
20,COc1ccc(CNC(=O)CSc2nc3ccccc3nc2Cc2ccccc2)cc1,inactive: 11.2%
21,CN(C(=O)CSc1nc2ccc(NC(=O)COc3ccc(Cl)cc3)cc2s1)c1ccccc1,inactive: -7.06%
22,CCCOc1cccc(NC(=O)c2c(-c3ccccc3Cl)noc2C)c1,inactive: 0.93%
